According to PubChem BioAssay (Tox21):
Where “and” joins values, the source holds several entries; their conditions need not be identical. Equal entries are not always repeated. Inconclusive means that the source gave no clear call. Such entries were picked first, then a sample of the others. For some of these results: A potency beside an inconclusive call is a rough fit, not a confirmed value. More than one record can exist for a structure, and the calls need not agree. Calls of active or inactive are those of the source. Unless noted, the call rests on the fitted dose curve; in most records, active means well fitted curve in the direction sought with a large enough effect in the repeat runs; inconclusive means weak or mixed curves; inactive means no such curve, though single readings can be large; an effect the other way counts as inactive or inconclusive.

Key:
[1] = qHTS assay to identify small molecule antagonists of the estrogen receptor beta (ER-beta) signaling pathway - cell viability counter screen (AID 1259382); settings: ER-beta-UAS-bla HEK293T viability, CellTiter-Glo luminescence, 16 h; series mostly up to 92.4 µM; further: nearly all actives have a fitted effect of over 55% in size; further: potency means the concentration at half of the fitted maximal effect
Outline: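 Luminescent ATP read-out (CellTiter-Glo, 30 min, RT) taken in the same wells as the bla reporter assay. HEK293T ER-beta-UAS-bla cells in 2% charcoal-stripped FBS were exposed to compounds with 1nM E2 for 16 hr at 37C.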

[2] = target: Progesterone receptor (Homo sapiens) (UniProt P06401); experiment: qHTS assay to identify small molecule agonists of the progesterone receptor (PR) signaling pathway (AID 1346784; calls by dose curve; further: nearly all actives have a fitted effect of over 30% in size; further: potency means the concentration at half of the fitted maximal effect); settings: PR-UAS-bla HEK293T, beta-lactamase FRET ratio, 16 h; activation: at 92.4 µM (top of the series) unless noted
UniProt P06401, sequence (P06401 whole entry, looked up): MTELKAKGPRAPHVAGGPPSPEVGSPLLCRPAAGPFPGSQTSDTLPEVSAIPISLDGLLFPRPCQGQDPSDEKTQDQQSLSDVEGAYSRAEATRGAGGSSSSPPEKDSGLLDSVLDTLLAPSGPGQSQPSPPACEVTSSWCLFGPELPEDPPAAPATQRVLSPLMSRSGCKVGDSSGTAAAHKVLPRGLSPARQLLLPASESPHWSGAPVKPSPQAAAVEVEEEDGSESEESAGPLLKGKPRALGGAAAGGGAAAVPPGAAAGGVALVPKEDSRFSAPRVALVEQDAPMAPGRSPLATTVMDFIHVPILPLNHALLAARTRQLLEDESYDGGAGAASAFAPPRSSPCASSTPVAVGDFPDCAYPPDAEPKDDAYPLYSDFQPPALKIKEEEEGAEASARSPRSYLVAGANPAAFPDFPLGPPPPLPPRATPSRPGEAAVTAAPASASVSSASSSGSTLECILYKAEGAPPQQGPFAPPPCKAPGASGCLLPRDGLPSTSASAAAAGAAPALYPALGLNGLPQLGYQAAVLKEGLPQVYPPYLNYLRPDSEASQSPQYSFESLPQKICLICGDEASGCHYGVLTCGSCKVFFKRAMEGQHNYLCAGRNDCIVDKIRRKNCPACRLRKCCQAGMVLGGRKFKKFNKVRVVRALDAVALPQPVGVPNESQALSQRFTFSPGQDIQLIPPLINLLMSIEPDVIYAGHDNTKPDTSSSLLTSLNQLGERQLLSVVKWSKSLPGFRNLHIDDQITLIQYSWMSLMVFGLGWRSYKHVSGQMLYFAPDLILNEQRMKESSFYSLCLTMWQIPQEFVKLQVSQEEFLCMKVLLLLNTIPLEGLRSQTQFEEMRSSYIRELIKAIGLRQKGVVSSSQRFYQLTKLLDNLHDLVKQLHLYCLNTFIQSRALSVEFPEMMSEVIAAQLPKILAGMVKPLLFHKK
Outline: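 PR-UAS-bla HEK 293T cells (beta-lactamase reporter under UAS) in 2% charcoal-stripped FBS, dosed with 23 nL compound after 6 hr, incubated 16hr at 37C. LiveBLAzer B/G FRET substrate added, fluorescence read after 2 hours.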

[3] = target: Progesterone receptor (Homo sapiens) (UniProt P06401); experiment: qHTS assay to identify small molecule antagonists of the progesterone receptor (PR) signaling pathway (AID 1346795; active means well fitted inhibition curve with a large enough effect in the signal ratio in the repeat runs, not every such curve was filed as active; inconclusive means weak or mixed curves; the % refers to the signal ratio; further: potency means the concentration at half of the fitted maximal effect; on activity change, negative = inhibition: on the % scale 0 is the no-effect control and ±100 the full control effect); settings: PR-UAS-bla HEK293T, beta-lactamase FRET ratio, 16 h; activity change, negative = inhibition: at 92.4 µM (top of the series) unless noted
Outline: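 PR-UAS-bla HEK293T cells with beta-lactamase reporter under UAS control, in 2% charcoal-stripped FBS, treated with compounds plus 1 nM promegestone (R5020, final) for 16 hr at 37C. Read-out: FRET beta-lactamase substrate fluorescence after 2 hr at room temperature.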

[4] = qHTS assay to identify small molecule antagonists of the progesterone receptor (PR) signaling pathway - cell viability counter screen (AID 1346798); settings: PR-UAS-bla HEK293T viability, CellTiter-Glo luminescence, 16 h; series mostly up to 92.4 µM; further: nearly all actives have a fitted effect of over 50% in size; further: potency means the concentration at half of the fitted maximal effect
Outline: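 PR-UAS-bla HEK293T cells, 3,000/well in 2% charcoal-stripped FBS medium, dosed with compounds plus R5020 agonist and incubated 16 h at 37C. Viability then measured in the same wells by CellTiter-Glo luminescence after 30 min at RT.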

[5] = target: Thyrotropin receptor (Homo sapiens) (UniProt P16473); experiment: qHTS assay to identify small molecule antagonists of the thyroid stimulating hormone receptor (TSHR) signaling pathway (AID 1259385; calls by dose curve; further: nearly all actives have a fitted effect of over 20% in size; further: potency means the concentration at half of the fitted maximal effect; on activity change, negative = inhibition: on the % scale 0 is the no-effect control and ±100 the full control effect); settings: TSHR-HEK293 cAMP HTRF, TSH-stimulated antagonist mode; activity change, negative = inhibition: at 92.4 µM (top of the series) unless noted
UniProt P16473, sequence (P16473 whole entry, looked up): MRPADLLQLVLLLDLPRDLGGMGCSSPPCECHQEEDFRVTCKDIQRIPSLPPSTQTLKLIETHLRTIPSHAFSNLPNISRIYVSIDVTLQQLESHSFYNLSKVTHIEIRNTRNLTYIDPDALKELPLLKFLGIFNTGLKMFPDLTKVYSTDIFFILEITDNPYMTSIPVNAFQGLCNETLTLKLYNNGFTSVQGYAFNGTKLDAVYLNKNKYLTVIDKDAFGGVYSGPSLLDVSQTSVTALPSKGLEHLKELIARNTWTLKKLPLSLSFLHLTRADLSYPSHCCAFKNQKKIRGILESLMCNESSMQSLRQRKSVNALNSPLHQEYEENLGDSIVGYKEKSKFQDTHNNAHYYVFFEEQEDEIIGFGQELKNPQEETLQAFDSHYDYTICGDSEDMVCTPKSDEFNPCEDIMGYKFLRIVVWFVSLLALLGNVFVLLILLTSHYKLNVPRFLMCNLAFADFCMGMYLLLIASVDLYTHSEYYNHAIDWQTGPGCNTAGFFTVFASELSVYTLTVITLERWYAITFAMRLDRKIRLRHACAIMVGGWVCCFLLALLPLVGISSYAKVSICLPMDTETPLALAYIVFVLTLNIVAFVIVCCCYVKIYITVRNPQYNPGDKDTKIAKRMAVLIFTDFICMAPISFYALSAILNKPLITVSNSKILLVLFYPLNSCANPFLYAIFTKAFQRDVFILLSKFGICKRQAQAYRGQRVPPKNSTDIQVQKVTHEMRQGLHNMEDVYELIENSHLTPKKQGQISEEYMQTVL
Outline: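 TSHR-HEK293 cells were plated and held 18 h at 37C/5% CO2, then given compound plus Ro20-1724 and stimulated with TSH at 1.5 ng/mL final. After 30 min at room temperature, cAMP was detected with cAMP-d2/anti-cAMP-cryptate (1 h) by fluorescence.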

[6] = qHTS assay to identify small molecule agonists of the progesterone receptor (PR) signaling pathway - cell viability counter screen (AID 1346799; calls by dose curve; further: nearly all actives have a fitted effect of over 45% in size; further: potency means the concentration at half of the fitted maximal effect); settings: PR-UAS-bla HEK293T viability, CellTiter-Glo luminescence, 16 h; series mostly up to 92.4 µM
Outline: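 Counter screen in the PR-UAS-bla HEK293T wells (2% charcoal-stripped FBS, 16 h compound exposure at 37 C) after the bla read. CellTiter-Glo added, 30 min at room temperature, luminescence read as cell viability.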

[7] = qHTS assay to identify small molecule antagonists of the TGF-beta/Smad signaling pathway - cell viability counter screen (AID 1346824); settings: SBE-bla HEK293T viability, CellTiter-Glo luminescence; series mostly up to 76.8 µM; further: potency means the concentration at half of the fitted maximal effect; nearly all actives have a fitted effect of over 50% in size
Outline: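 SBE-bla HEK 293T cells were plated overnight at 37 C, then given compounds in DMSO plus TGF-beta1 (added as 0.25 ng/mL solution) for 5 hr. After the bla read, CellTiter-Glo was added to the same wells and luminescence read after 30 min at room temperature.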

[8] = qHTS assay to identify small molecule agonists of the TGF-beta/Smad signaling pathway - cell viability counter screen (AID 1346829); settings: SBE-bla HEK293T viability, CellTiter-Glo luminescence, 5 h; series mostly up to 76.8 µM; further: potency means the concentration at half of the fitted maximal effect; nearly all actives have a fitted effect of over 45% in size
Outline: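 After overnight seating at 37 C and 5% CO2, reporter cells got compounds for 5 hr and FRET substrate for 2 hr; cell viability then came from CellTiter-Glo luminescence.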

[9] = qHTS assay to identify small molecule agonists of the TGF-beta/Smad signaling pathway (AID 1346859; active means well fitted activation curve with a large enough effect in the signal ratio in the repeat runs, not every such curve was filed as active; inconclusive means weak or mixed curves; the % refers to the signal ratio; further: potency means the concentration at half of the fitted maximal effect; on activation: on the % scale 0 is the no-effect control and ±100 the full control effect); settings: SBE-bla HEK293T, TGF-beta/Smad beta-lactamase reporter, 5 h; activation: at 76.8 µM (top of the series)
Outline: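 SBE-bla HEK293T cells plated overnight, then compound exposure for 5 h at 37 C. Beta-lactamase reporter read with LiveBLAzer B/G FRET substrate after 2 h at room temperature, fluorescence at 405 nm excitation, 460/530 nm emission.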

[10] = target: Thyrotropin-releasing hormone receptor (Homo sapiens) (UniProt P34981); experiment: qHTS assay to identify small molecule antagonists of the thyrotropin-releasing hormone receptor (TRHR) signaling pathway (AID 1346877; active means well fitted inhibition curve with a large enough effect in the repeat runs, not every such curve was filed as active; inconclusive means weak or mixed curves; further: potency means the concentration at half of the fitted maximal effect); settings: TRHR-HEK293, TRH-induced calcium fluorescence, antagonist mode; series mostly up to 51.3 µM
UniProt P34981, sequence (P34981 whole entry, looked up): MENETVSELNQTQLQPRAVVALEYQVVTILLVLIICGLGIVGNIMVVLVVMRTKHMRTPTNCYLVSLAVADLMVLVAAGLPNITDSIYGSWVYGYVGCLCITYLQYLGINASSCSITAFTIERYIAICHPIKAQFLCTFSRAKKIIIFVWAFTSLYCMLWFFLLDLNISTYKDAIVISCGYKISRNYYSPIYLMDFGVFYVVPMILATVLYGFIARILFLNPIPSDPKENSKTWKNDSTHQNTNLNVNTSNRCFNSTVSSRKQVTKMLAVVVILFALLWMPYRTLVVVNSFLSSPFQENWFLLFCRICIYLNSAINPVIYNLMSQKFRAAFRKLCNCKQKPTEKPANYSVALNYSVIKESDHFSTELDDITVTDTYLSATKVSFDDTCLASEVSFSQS
Outline: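 HEK293/TRHR cells, 18 h, 37 °C; Ca2+ dye 2 h; cpd 5 min RT; TRH 1 nM final; fluorescence read 3 min, 1 s intervals; 15 concs, triplicate.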

[11] = qHTS assay to identify small molecule antagonists of the TGF-beta/Smad signaling pathway (AID 1346924; active means well fitted inhibition curve with a large enough effect in the signal ratio in the repeat runs, not every such curve was filed as active; inconclusive means weak or mixed curves; the % refers to the signal ratio; further: potency means the concentration at half of the fitted maximal effect); settings: SBE-bla HEK293T, TGF-beta/Smad reporter, beta-lactamase ratio; activity, negative = inhibition: at 76.8 µM (top of the series) unless noted
Outline: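 Read-out was FRET-substrate fluorescence (405 nm excitation; 460 and 530 nm emission) after 2 h at room temperature. Before that, cells carrying a Smad-binding-element beta-lactamase reporter in HEK 293T had been stimulated 5 h at 37 C with TGF-beta1 (0.25 ng/mL addition solution) in the presence of test compound.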

[12] = Human pregnane X receptor (PXR) small molecule agonists, qHTS cell viability counter screen (AID 1346977); settings: PXR-Luc HepG2 viability, CellTiter-Fluor, 24 h; series mostly up to 92.4 µM; further: potency means the concentration at half of the fitted maximal effect; nearly all actives have a fitted effect of over 50% in size
Outline: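 PXR-Luc HepG2 cells (2,000/well, 5% charcoal-stripped FBS) preincubated 5 hr, then exposed to compounds 24 hr at 37 C. Viability read in the same wells by CellTiter-Fluor fluorescence, reagent added at 23 hr, 1 hr incubation.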

[13] = Caspase-3/7 induction in CHO-K1 cells by small molecules, qHTS cell viability counter screen (AID 1346979); settings: CellTiter-Fluor fluorescence, 17 h; series mostly up to 92.4 µM; further: nearly all actives have a fitted effect of over 35% in size; further: potency means the concentration at half of the fitted maximal effect
Outline: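 Wild-type CHO-K1 cells (1,500/well) treated with compound after 5 h plating; after 16 h at 37C, viability read as CellTiter-Fluor fluorescence following 1 h reagent incubation, in the same wells as the caspase read.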

[14] = Caspase-3/7 induction in CHO-K1 cells by small molecules, qHTS assay (AID 1346980); settings: CHO-K1 caspase-3/7 induction, Caspase-Glo luminescence, 17 h; series mostly up to 92.4 µM; further: potency means the concentration at half of the fitted maximal effect; nearly all actives have a fitted effect of over 15% in size
Outline: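 Wild-type cells were seeded at 1,500 per well and settled 5 hr at 37 C, 5% CO2, then exposed to DMSO-dissolved compounds for 17 hr. Caspase-Glo 3/7 reagent was added, and luminescence was read after 30min at room temperature.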

[15] = qHTS assay to identify small molecule agonists of the estrogen receptor alpha (ER-alpha) signaling pathway in the presence of an antagonist - cell viability counter screen (AID 1259386); settings: VM7Luc4E2 viability, CellTiter-Fluor fluorescence, 22 h; series mostly up to 92.4 µM;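 further: cells exposed to compounds for 22 h at 37 °C before the viability read; on the % scale 0 is the no-effect control and ±100 the full control effect; nearly all actives have a fitted effect of over 30% in size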
Outline: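 Read-out: CellTiter-Fluor fluorescence after 1hr reagent incubation, measured in the same wells as the luciferase readout. VM7Luc4E2 cells were exposed to 15 compound concentrations with 10.0nM ICI-182,780 for 22hr at 37C.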

[16] = qHTS assay to identify small molecule agonists or antagonists of the thyroid stimulating hormone receptor (TSHR) signaling pathway - wild type cell line counter screen (AID 1259384; calls by dose curve; further: potency means the concentration at half of the fitted maximal effect; on cAMP activity change: on the % scale 0 is the no-effect control and ±100 the full control effect); settings: HEK293 wild type, cAMP HTRF counter-screen; cAMP activity change: at 92.4 µM (top of the series), active compounds read high unless noted
Outline: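 Wild-type HEK293 cells were plated 18 h at 37 C/5% CO2, pin-dosed with compound plus Ro20-1724 medium, held 30 min at room temperature, then given cAMP-d2 and anti-cAMP-cryptate; fluorescence was read after 1 h. Fifteen concentrations, triplicate.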
Tags describe the fitted curve by direction and shape or compound fluorescence and quenching.

With `C1=Cc2cccc3cccc1c23` the Potency [1] was “inactive”, the Potency [2] was active: 60.1 µM and the Potency [3] was “inactive”. For the same compound, the Potency [4] was inconclusive: 60.1 µM [rising, single point].
In the case of `CC(=O)[O][Sn]([c]1ccccc1)([c]1ccccc1)[c]1ccccc1`, the Potency [1] was active: 0.137 µM, the Potency [5] was active: 19.3 µM and the Potency [3] was active: 0.0486 µM. For the same compound, the Potency [4] was active: 0.273 µM, the Potency [6] was active: 0.433 µM and the Potency [7] was active: 1.95 µM. The Potency [8] was active: 1.74 µM, the Potency [9] was inconclusive: 692 nM [fluorescent, full curve] and the Potency [10] was active: 2.69 µM. For the same compound, the Potency [11] was inconclusive: 0.616 µM [rising, full curve], the Potency [12] was active: 0.306 µM and the Potency [13] was active: 154 nM. For the same compound, the Potency [14] was active: 122 nM.
With `C=CC(=O)OCCCCOC(=O)C=C` the Potency [1] was inconclusive: 68.6 µM [cytotoxic, single point], the Potency [2] was inconclusive: 68.6 µM [falling, partial curve, poor fit] and the Potency [4] was “inactive”. The Potency [12] was inconclusive: 68.6 µM [cytotoxic, partial curve, poor fit] and the Potency [14] was inconclusive: 27300 nM [activator, single point].
For `CC(C)N1C(=O)N(c2ccccc2)CSC1=NC(C)(C)C`, the Potency [1] was inconclusive: 61.1 µM [cytotoxic, single point], the Potency [5] was inconclusive: 48.6 µM [falling, partial curve] and the Potency [3] was active: 17.2 µM. The Potency [4] was inconclusive: 77 µM [cytotoxic, single point], the Potency [6] was inconclusive: 77 µM [cytotoxic, single point] and the Potency [12] was inconclusive: 68.6 µM [cytotoxic, single point].
In the case of `ClC1=C(Cl)C2(Cl)C3C(Cl)C=CC3C1(Cl)C2(Cl)Cl` (stereo not given), the Potency [1] was inconclusive: 68.9 µM [cytotoxic, single point], the Potency [2] was inconclusive: 68.9 µM [falling, single point] and the Potency [3] was inconclusive: 21.8 µM [rising, full curve]. For the same compound, the activity change, negative = inhibition [3] was inconclusive: -59.7%, the Potency [6] was “inactive” and the Potency [8] was inconclusive: 55.2 µM [cytotoxic, single point] and inconclusive: 61.6 µM [cytotoxic, single point]. For the same compound, the Potency [9] was inconclusive: 55200 nM [rising, single point], the Potency [12] was inconclusive: 70.8 µM [cytotoxic] and inconclusive: 68.6 µM [cytotoxic, partial curve, poor fit] and the Potency [13] was inconclusive: 68.9 µM [cytotoxic, single point] and inconclusive: 68.6 µM [cytotoxic, single point]. The Potency [14] was inconclusive: 77.3 µM [activator, single point] and inconclusive: 68.6 µM [activator, single point].
For `Nc1c(Cl)c(F)nc(OCC(=O)O)c1Cl`, the Potency [5] was “inactive”, the Potency [15] was “inactive” and the Potency [3] was “inactive”. The Potency [6] was inconclusive: 13.7 µM [cytotoxic, full curve], the Potency [9] was “inactive” and the Potency [13] was “inactive”.
In the case of `C[CH2][Hg][S]c1ccccc1C(=O)O`, the Potency [16] was inconclusive: 27.3 µM [rising, full curve], the cAMP activity change [16] was inconclusive: 17.2% [at 42.5 µM, active compounds read high] and the Potency [5] was active: 13.7 µM and active: 29.8 µM. The Potency [2] was inconclusive: 5.96 µM [cytotoxic, full curve], the activation [2] was inconclusive: -15.4% and the Potency [3] was active: 1.54 µM and active: 3.35 µM. For the same compound, the Potency [4] was active: 2.73 µM and active: 6.68 µM, the Potency [6] was active: 1.93 µM and active: 6.68 µM and the Potency [7] was active: 43.6 µM and active: 19 µM. For the same compound, the Potency [8] was inconclusive: 61.6 µM [cytotoxic, single point] and the Potency [9] was inconclusive: 4.9 µM and inconclusive: 848 nM [fluorescent, full curve].
